Assay results taken from PubChem BioAssay AID1159614 (National Center for Advancing Translational Sciences (NCATS), 2016).
About 65 (0.1%) of roughly 45,000 compounds were called active. Calls follow the shape of the dose curve; as a rule, active = well fitted activation curve with a large enough effect; inconclusive = small, poorly fitted or top-dose-only effect; inactive = no such curve, though single readings can be large or run the other way. The list shows a part of the results.

What follows are molecules tested against Galactocerebrosidase (Homo sapiens) (UniProt P54803) (assay: A Novel Cell-Based Assay to Identify Small Molecules for B -Galactocerebrosidase). Details: 145M-Twi-hGALC-G270D cells (Twitcher mouse brain line with human GALC G270D), HMU-beta-Gal fluorescence, 48 h; series mostly up to 57.5 µM; activation: at the top concentration.
Method in brief: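 Brain-derived Twitcher mouse 145M-Twi cells stably expressing human GALC-G270D or wild-type GALC, treated live, then residual GALC activity read by fluorescence of HMU-b-Gal substrate (0.1 mM final) in citrate-phosphate buffer pH 5.2 with sodium taurocholate. Signal increase indicates enhancement.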
Also: 0% is about no effect; nearly all actives have a fitted effect of over 65% in size.

Sequence of UniProt P54803 (P54803 whole entry, looked up): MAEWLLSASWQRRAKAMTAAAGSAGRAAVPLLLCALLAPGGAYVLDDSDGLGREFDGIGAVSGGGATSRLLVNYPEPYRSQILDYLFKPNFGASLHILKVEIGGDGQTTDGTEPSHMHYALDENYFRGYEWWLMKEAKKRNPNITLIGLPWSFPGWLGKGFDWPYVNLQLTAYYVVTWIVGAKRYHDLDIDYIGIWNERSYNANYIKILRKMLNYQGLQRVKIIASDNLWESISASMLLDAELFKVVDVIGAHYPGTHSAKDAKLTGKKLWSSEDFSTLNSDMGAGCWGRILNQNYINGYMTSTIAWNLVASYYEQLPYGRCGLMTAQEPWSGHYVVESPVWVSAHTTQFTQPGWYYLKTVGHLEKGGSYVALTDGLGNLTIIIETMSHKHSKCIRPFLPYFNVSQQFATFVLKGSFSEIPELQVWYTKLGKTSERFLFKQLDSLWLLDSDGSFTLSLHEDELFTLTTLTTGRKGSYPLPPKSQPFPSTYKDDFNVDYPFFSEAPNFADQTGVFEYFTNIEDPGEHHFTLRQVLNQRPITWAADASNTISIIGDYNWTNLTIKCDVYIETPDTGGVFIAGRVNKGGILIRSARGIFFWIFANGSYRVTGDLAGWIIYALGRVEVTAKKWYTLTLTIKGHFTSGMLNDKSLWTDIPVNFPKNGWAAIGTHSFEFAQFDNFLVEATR

activation, inactive:
COc1ccc(-c2nnc(SCC(=O)Nc3ccc(C(C)=O)cc3)nc2-c2ccc(OC)cc2)cc1 -26.5%, CCOc1ccc(NS(=O)(=O)c2ccc3c(c2)CCN3C(C)=O)cc1 -25.5%, Cc1cccc(NC(=O)c2sc3nc4c(cc3c2N)CN(Cc2ccccc2)CC4)c1 -5.75%, CCCCCCn1c(=O)c2c(ncn2C)n(C)c1=O -9.46%, CCOc1ccccc1NC(=O)C(C)Sc1nc(-c2ccccc2)c(C#N)c(=O)[nH]1 (centres undefined) -11.9%, COc1ccccc1NC(=O)c1oc2ccccc2c1NC(=O)c1ccccc1C(F)(F)F -24.5%, Cc1cc2nc(-c3ccc(OCc4ccc(F)cc4)cc3)cc(C(F)(F)F)n2n1 -4.52%, O=C(Nc1ccc(NC(=O)c2cccs2)cc1)c1cccc(Br)c1 -8.68%, CCCCOc1ccc(C(=O)NCCc2sc(-c3cccc(F)c3)nc2C)cc1 -4.25%, Cc1ccc(C)c(Cn2c(=O)n(Cc3ccc4c(c3)OCO4)c(=O)c3oc4ccccc4c32)c1 2.18%, Cc1nc2sc(C(=O)Nc3ccc(F)cc3)c(N)c2c(-c2ccc(Br)cc2)c1C(=O)Nc1ccc(Cl)cc1 -8.46%, CCc1cccc(NC(=O)c2cnc(SC)nc2-c2ccccc2)c1 2.01%, CCOc1ccc(/C=C/c2nc(C#N)c(NC(C)CC)o2)cc1 (centres undefined) -11.5%, CCOc1ccc(Sc2cc(C(=O)NC(C)CC)c3ccccc3n2)cc1 (centres undefined) -6.91%, O=C(Cn1ncc2c3ccccc3n(Cc3ccc(Cl)cc3)c2c1=O)NCc1cccs1 -10.2%, COc1ccc(N2CCN(S(=O)(=O)c3ccc(OC)c(-c4noc(C)n4)c3)CC2)cc1 -18.2%, COc1ccc(-c2cn3nc(N4CCC(C(=O)Nc5cccc(OC)c5)CC4)sc3n2)cc1 3.31%, CC1CN(C(=O)N2CCC(C(=O)NCCC3=CCCCC3)CC2)c2cc(Cl)ccc2O1 (centres undefined) -8.41%, Cc1ccc(C2CC(=O)N(Cc3ccccc3)c3c2c(C)nn3-c2nc(C)cc(C)n2)cc1 (centres undefined) -9.34%, COc1ccc(NC(=O)CSc2nc3ccncc3[nH]2)c(OC)c1 -11.9%, Cc1cc(NC(=O)CSc2nc3c([nH]c4ccccc43)c(=O)n2-c2ccccc2)no1 -0.0292%, O=c1cc(-c2ccc(F)cc2)nc(SCc2nc(-c3cccc(Cl)c3)no2)[nH]1 5.51%, O=C(C1CCCN(S(=O)(=O)c2ccc(Br)s2)C1)N1CCN(c2ccc(F)cc2)CC1 (centres undefined) -1.15%, CCc1ccc(NC(=O)c2ccc(F)c(S(=O)(=O)N(C)C3CCCCC3)c2)cc1 3.27%, CCc1ccc(NC(=O)CSc2nccn2-c2cccc(C)c2C)cc1 -41.8%, Cc1ccc(C)n1-c1c(C(=O)NCCCN2CCN(c3ccc(F)cc3)CC2)sc2ncccc12 -10.9%, O=C(C1CCN(S(=O)(=O)Cc2ccccc2)CC1)N1CCN(c2ccc(F)cc2)CC1 -22.9%, Cc1ccc(Cl)cc1-n1ncc2c(NCCCn3ccnc3)ncnc21 -19.8%, Cc1ccc2c(=O)cc(C(=O)Nc3sc4c(c3C(N)=O)CCCC4)oc2c1 -24.2%, Cc1ccc2oc(-c3cc(NC(=O)c4ccc5c(c4)OCCO5)cc(C)c3O)nc2c1 -7.6%, COc1cc(NC(=O)c2nc3ccccc3nc2C)cc(OC)c1OC -12.3%, COc1ccc(C2C(=O)N(C3CCCCC3)CC(=O)N2CCc2ccc(OC)c(OC)c2)cc1 (centres undefined) -3.59%, Cc1ccc(C)c(CN2C(=O)C3(c4ccccc42)N(c2cccc(C(F)(F)F)c2)C(=O)CS3(=O)=O)c1 (centres undefined) 11.7%, Cc1ccc(Cl)cc1N1CCN(C(=O)c2cccn3c(=O)c4cc(Cl)ccc4nc23)CC1 -2.91%, Cc1ccccc1OCc1ccc(-c2nc(C#N)c(N3CCN(C)CC3)o2)o1 -28.7%, Cc1ccc(-n2nc(C(=O)Nc3ccc(Cl)cn3)c3c4ccccc4n(C)c3c2=O)cc1 -18.1%, CC1=C(C(=O)OCC(C)C)C(c2ccc(OCc3ccccc3)cc2)N2C(=O)CCSC2=N1 (centres undefined) -11.9%, COc1cc(CN(C(=O)c2cccc(Cl)c2)c2ccccn2)cc(OC)c1OC -31.1%, CCC(C(=O)N1CCN(c2ccccc2F)CC1)n1nc(C)c2sc3ccccc3c2c1=O (centres undefined) -8.76%, COc1ccc(NC(=O)CCn2nc(-c3ccccc3OC)c3c(C)cc(C)nc32)cc1 -28.5%, Cc1c(C(=O)OCC2CCCCC2)[nH]c2c1C(=O)CC(c1ccc(Cl)cc1)C2 (centres undefined) -15.2%, Cc1nnsc1C(=O)Oc1ccc(C(C)C)cc1 -18.7%, Cc1cccc(NC(=O)CSc2nc(C3CCCC3)nc3c2c(=O)n(C)c(=O)n3C)c1C -0.532%, COc1cccc(CNC(=O)C(NS(=O)(=O)c2ccc3c(c2)oc(=O)n3C)C(C)C)c1 (centres undefined) -16.7%, COc1ccc2c(c1)-c1nc(NC(=O)c3ccccc3F)sc1CC2 -29.2%, CCN(CC)C(=O)c1sc2c(c1C)c(=O)n(-c1ccc(C)c(C)c1)c(=O)n2Cc1cc(=O)n2c(C)cccc2n1 -5.09%, CCn1c(=O)cc(OCC(=O)NCc2ccccc2Cl)c2ccccc21 -9.05%, COc1ccccc1NC(=O)Cn1c(=O)n(CCc2ccccc2)c(=O)c2c3c(sc21)CN(C(C)=O)CC3 -3.48%, Cc1nnc(SCc2nc(-c3ccc(Cl)cc3)no2)n1-c1ccc(F)cc1 0.612%, COc1ccc(CNC(=O)CSc2ncc3c(n2)-c2cc(Cl)ccc2N(Cc2ccccc2)S3(=O)=O)cc1OC -1.8%, CCC(=O)OCc1cnc(C)c2oc(=O)c(C(=O)Nc3ccccc3C(F)(F)F)cc12 -14.3%, O=c1cc(-c2ccccc2)nc2cc(-c3ccc(F)cc3)[nH]n12 -0.315%, Cc1ccc(S(=O)(=O)N2CCc3cc(C(=O)Nc4ccc(C)c(C)c4)ccc32)cc1 -10.1%, Cc1cccc(N(C)C(=O)CN(C)S(=O)(=O)c2ccc3[nH]c4c(c3c2)CCCC4)c1 -1.03%, COc1cc2ccccc2cc1C(=O)Nc1cc(-c2nc3ccccc3o2)ccc1C -9.97%, Cc1ccc(Cn2cc(/C=C(/C#N)C(=O)Nc3cccc(Cl)c3)c3ccccc32)cc1 -14.2%, O=C(c1ccccc1)n1nc(-c2ccco2)nc1NCc1cccs1 -6.36%, O=C(CCSCc1ccccc1F)N1CCN(c2ccc(Cl)cc2)CC1 -19.5%, COc1ccc(-c2nc3ccccc3o2)cc1NC(=O)CSc1ccc(Cl)cc1 -11.3%, COc1ccc(OC)c(CCNC(=O)CN2C(=O)COc3ccc(S(=O)(=O)N4CCC(C)CC4)cc32)c1 -3.52%, COc1ccc(CC(=O)Nc2c(C(=O)Nc3ccc(F)cc3)oc3ccccc23)cc1OC -9.68%, CCCCNc1nc(Oc2ccc(OCCC)nn2)nc(N(C)C)n1 -11.5%, COc1ccc(-n2c(/C=C/c3cccc4ccccc34)nc3ccccc3c2=O)cc1Cl -11.3%, COc1cc2c(C(=O)Nc3ccc(C)cc3Br)cn(C)c(=O)c2cc1OC -2.89%, CCOC(=O)c1ccc(NC2=CC(c3ccc(O)c(OCC)c3)N(c3ccc(C(=O)OCC)cc3)C2=O)cc1 (centres undefined) -3.23%, CCCN1CCN(CCNC(=O)Nc2cc(C)ccc2OC)CC1 -15.8%, CCC1CCCCN1CCCNC(=O)c1c(O)nc2c(C)cccn2c1=O (centres undefined) -12%, Cc1ccccc1C(=O)Nc1nnc(S(=O)(=O)N(C)Cc2ccc(Cl)cc2)s1 -38.3%, N#Cc1ccccc1Cn1c(=O)n(CCCCC(=O)NCc2ccc3c(c2)OCO3)c(=O)c2ccccc21 -5.54%, Cc1ccc(CNC(=O)c2nc(-c3ccc(Cl)cc3)n3c2CCCCC3)cc1 -18%, O=C(Cc1ccc(F)cc1)N1CCC(c2nc3c(nnn3Cc3ccc(F)cc3)c(=O)[nH]2)CC1 -1.29%, CCCn1c(=O)c2sccc2n2c(CCCC(=O)Nc3ccccc3OCC)nnc12 -18.4%, Cc1ccc(CN(C(=O)COc2ccc(C(C)C)cc2)C2CCS(=O)(=O)C2)o1 (centres undefined) 0.312%, COc1ccc(CC(=O)N2CC(=O)Nc3ccc(Br)cc3C2c2ccc(F)cc2)cc1 (centres undefined) -23.5%, CCn1cc2nc(SCc3ccc(C)cc3)n(CCc3ccccc3)c(=O)c2n1 -2.89%, Cc1ccc(OCC(=O)Nc2ccc(Cl)c(-c3nc4ccccc4[nH]3)c2)cc1C -8.18%, COc1ccc(S(=O)(=O)N(CC(=O)N(C)Cc2ccccc2)c2ccc(Cl)cc2)cc1 -9.46%, Cc1cccc(OCC(=O)Nc2ccc(-c3nc4cc(C)ccc4o3)c(O)c2)c1 -34.8%, CCC1CN(C(=O)N2CCC(C(=O)NCCC3=CCCCC3)CC2)c2cc(C)ccc2O1 (centres undefined) -14.8%, COc1ccc(NC(=O)CSc2nnc(NC(=O)Nc3ccccc3)s2)c(OC)c1 -9.11%, COc1cc(Cc2cnc(N)nc2N)cc(OC)c1OC -9.65%, COc1ccc(Cn2c(=O)[nH]c3cc(C(=O)N4CCN(c5cccc(OC)c5)CC4)ccc3c2=O)cc1 -10.5%, CC1CCCN(c2cc3c(cc2F)c(=O)c(S(=O)(=O)c2cccc(Cl)c2)cn3C)C1 (centres undefined) -14.7%, Cc1cc(C)cc(NC(=O)N2CCN3CCCCC3C2)c1 (centres undefined) -11.1%, CC(C)(C)c1ccc(C(=O)NC(Cc2c[nH]c3ccccc23)C(=O)OCC(=O)c2ccccc2)cc1 (centres undefined) -17.8%, CCOC(=O)c1ccc(NC(=O)c2c(NCc3sccc3C)sc3c2CCCCC3)cc1 -16.4%, O=C(NC1CCCCC1)c1c[nH]c2ccc(S(=O)(=O)Nc3ccccc3F)cc2c1=O -7.88%, Cn1cc(C(=O)NCc2ccc(Cl)cc2)c(=O)c2cc(S(=O)(=O)N3CCCCCC3)ccc21 -16.2%, Cc1cc(C)c2c(n1)SCCN2C(=O)Nc1ccc(C(=O)Nc2cc(Cl)ccc2C)cc1 -15.4%, COc1cccc(C(=O)Nc2cc3cc(OC)ccc3oc2=O)c1 0.132%, COC(=O)c1cc2sc(Cl)cc2n1Cc1nc(-c2ccc(OC)cc2)oc1C -11.1%, COc1ccc(N(CC(=O)NCCc2cccc(C)c2)S(=O)(=O)c2c(C)noc2C)cc1 -6.04%, Cc1cc(C(=O)NCCc2ccc(Cl)cc2)c2c(C)nn(-c3cccc(F)c3)c2n1 -1.63%, Cc1ccc(C(=O)Nc2ccc(C(=O)OCc3cc(=O)n4ccsc4n3)cc2)cc1 -20.7%
